These results are taken from the supplement of paper PMC11417369.

± gives the standard deviation of the averaged measurements. The list shows a part of the results.

The subject of the test is PfAP2-EXP AP2 domain (GST-tagged). Nature of the test: gcPBM binding intensity (ln(normalized median fluorescence intensity)); higher = stronger DNA binding. The procedure, abridged: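 GST-tagged P. falciparum DNA-binding domains, expressed in E. coli (about 25 μg on average), were applied for 1 h to an Agilent 4 × 180k array of primer-extended double-stranded 36-bp intergenic genomic probes plus negative controls. The binding buffer was 1× PBS with 1% milk, 0.2 mg/ml BSA, 0.5% salmon testes DNA and 0.03% Triton X-100. Bound protein was detected with Alexa488 anti-GST antibody and scanned at 488 nm. Binding intensity is the highest Masliner-normalised natural-log median intensity across replicate spots of either probe orientation.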
Turning to “AATCTATATTGACACACACACAAAAAAAAAAAAAAA [CACACA_site6739]”, the “gcPBM binding intensity (ln)” value was found to be 8.15 ± 0.6.
For “ATTTTAACCAATTATTGTACTTGGTTATTCTTTTTT [XGTACX_site7453]” the value was 8.61 ± 0.36; for “CATATTAAAAATACATGTACATATATATTTAATATA [XGTACX_site8580]”, 8.38 ± 0.18; for “AACCTCAAATACACAAGTACGTATAATAAGGAACAA [XGTACX_site4304]”, 8.82 ± 0.4.
As for “TATAAATATGTGTTTACACACAATAATGAATTAAAA [CACACA_site6555]”, the “gcPBM binding intensity (ln)” value was 8.25 ± 0.35.
For “GTTTGTAAATATTTTACACACATATTTATTTATATA [CACACA_site6632]”, the “gcPBM binding intensity (ln)” value was 8.28 ± 0.45.
Regarding “GTTAAAATAATATTATGTACATATATATAAAAATAT [XGTACX_site8512]”, the “gcPBM binding intensity (ln)” value was found to be 8.65 ± 0.27.
Take “ATGGAAAAATGTATATATAAAATAAATATATTATAT [CACACA_negctrl_site1712]”: the “gcPBM binding intensity (ln)” value was 8.06 ± 0.29.
With “AAATAAAAAGTAAAGCGTACAAATGATCAAATAATA [XGTACX_site7898]”, the “gcPBM binding intensity (ln)” value was 9.04 ± 0.53.
For “TAATCAACAAAATCTACACACTAAAATGAAATATAA [CACACA_site3749]” the value was 8.53 ± 0.46; for “CCCAGGTGCTCGTAACGTACTTACATCAAATATTAT [XGTACX_site4617]”, 8.88 ± 0.27.
“AGAAGTGTAAAAGTTACACACACAAACTTGTCATTT [CACACA_site4613]”: the “gcPBM binding intensity (ln)” value is 8.6 ± 0.38.
For “TATAAATAGATATATACACACTTGTGCAGAATATTA [CACACA_site7112]” the value was 8.63 ± 0.25.
Turning to “AGGCGTGAAATATACGTACACACATTATTTATATTT [CACACA_site2558]”, the “gcPBM binding intensity (ln)” value came to 8.58 ± 0.3.
For “TAACATTACTCTTAACTCTTTTGGATACCAACTTAT [XGTACX_negctrl_site82]” the value was 8.51 ± 0.61; for “ATAATAATATATACATGTACATATATATATATATAT [XGTACX_site3455]”, 9.97 ± 0.54; for “AAATATTTATAAATTGCACACAAATAATAACATTAT [CACACA_site8737]”, 8.3 ± 0.31.
Turning to “TTTTTTTTTTTAATATGTACGTAAAATAAGTTTAAA [XGTACX_site6495]”, the “gcPBM binding intensity (ln)” value was determined as 8.67 ± 0.071.
For “TATTATATTTATTTATGTACACATATACTTAAATAA [XGTACX_site1355]”, the “gcPBM binding intensity (ln)” value worked out at 8.46 ± 0.45.
For “TGTAATACAGAAAAAAGTACTAAAAAGAAAAGGATT [XGTACX_site3176]” the value was 9.02 ± 0.56; for ACACCTATAAATTAAGTGCATTTTTTTTGATGTTAT, 8.65 ± 0.18.
Regarding “ACATTCAATCTACTGTGTACATATTAAACTTTGAAA [XGTACX_site2913]”, the “gcPBM binding intensity (ln)” value turned out to be 8.9 ± 0.31.
Take “AAAAAATATATATCACGTGGTAATATATATATATAT [XGTACX_negctrl_site252]”: the “gcPBM binding intensity (ln)” value was determined as 10 ± 0.28.
For “AATATATAAATAGATACACACATACATACATACATA [CACACA_site4301]”, the “gcPBM binding intensity (ln)” value is 8.52 ± 0.3.
“AAATTAAATCCGCACGCACACACACCGATTAATAAA [CACACA_site9321]”: the “gcPBM binding intensity (ln)” value came out at 8.75 ± 0.27.
Take “TACATCTGTATATAAACACACAACAAAAATGCTTAC [CACACA_site3814]”: the “gcPBM binding intensity (ln)” value came to 8.57 ± 0.46.
For “CTATAATAACATAACACACACATGTATTTATAGGTG [CACACA_site6298]”, the “gcPBM binding intensity (ln)” value was determined as 8.66 ± 0.37.
On to “ATATATATACAACAAGCATGCAGTAATTTTTTTTTT [TGCATGCA_site728]”, for which the “gcPBM binding intensity (ln)” value was 9.195 ± 0.064.
For “TCCTTATAAAAATACACACAAACTTTAATTAAAACA [CACACA_site3730]”, the “gcPBM binding intensity (ln)” value was 8.45 ± 0.58.
For “AAAGATAAAATATTATGTACATATATATATATATAT [XGTACX_site5079]” the value was 10.2 ± 0.28; for “CATTTAACATAAATTAAACACACAATATAATACATT [CACACA_site8333]”, 8.53 ± 0.48.
Take “TTTTATTTTTATTATACACACGCTTAATAAATGCAT [CACACA_site1751]”: the “gcPBM binding intensity (ln)” value was 8.63 ± 0.29.
With “GGGAATATAAGTACACGATAATATGTGATAAGGTCT [CACACA_negctrl_site1502]”, the “gcPBM binding intensity (ln)” value is 9.04 ± 0.63.
For “TTTTTTTGTTGTTGTTGTACGATATTTTCCTTATCA [XGTACX_site2375]” the value was 8.87 ± 0.46; for “TATAAAAAAAACAAAAAAAAAAAAAAACAAAAAAAA [TGCATGCA_negctrl_site514]”, 8.22 ± 0.43.
Regarding “TGTATAAAAGTTTATACACACATTTGATATATTTCA [CACACA_site6606]”, the “gcPBM binding intensity (ln)” value was found to be 8.24 ± 0.47.
For “GGGGGGATGAGATATTGTACTTTTTAGGAAAGTGTA [XGTACX_site2835]”, the “gcPBM binding intensity (ln)” value was found to be 10.1 ± 0.19.
As to “ATTAAATACATTAACACACACACAAATATATACATA [CACACA_site2881]”, the “gcPBM binding intensity (ln)” value turned out to be 8.73 ± 0.52.
Consider “AATAATAATACTAATCGTACGCATATTTTTCAAACC [XGTACX_site8055]”, for which the “gcPBM binding intensity (ln)” value was found to be 8.65 ± 0.38.
For the sequence “CATGTTCATCAGAACGCACACATAATGGTTTACTTA [CACACA_site898]”, the “gcPBM binding intensity (ln)” value is 8.47 ± 0.3.
In the case of “GATACACCAAATAACTGTACGCACGTGTAATATTAA [XGTACX_site3441]”, the “gcPBM binding intensity (ln)” value amounted to 8.96 ± 0.45.
Regarding “ACTTATATAAAACATTAACACACAAAGAAAAAAAAT [CACACA_site8529]”, the “gcPBM binding intensity (ln)” value was determined as 8.67 ± 0.37.
For the sequence “AGTAACTAATTAAATGCATGTCGATATATATTATAT [TGCATGCA_site1038]”, the “gcPBM binding intensity (ln)” value is 8.73 ± 0.24.
For “GTGTATATGTATATATGTACATAAATTTTTTTTTTT [XGTACX_site7083]”, the “gcPBM binding intensity (ln)” value is 8.24 ± 0.25.
